The other results are listed elsewhere or left out.

This test deals with T1, MBP-FoxP1dN (Mus musculus, UniProt P58462 326-579).
T1 sequence: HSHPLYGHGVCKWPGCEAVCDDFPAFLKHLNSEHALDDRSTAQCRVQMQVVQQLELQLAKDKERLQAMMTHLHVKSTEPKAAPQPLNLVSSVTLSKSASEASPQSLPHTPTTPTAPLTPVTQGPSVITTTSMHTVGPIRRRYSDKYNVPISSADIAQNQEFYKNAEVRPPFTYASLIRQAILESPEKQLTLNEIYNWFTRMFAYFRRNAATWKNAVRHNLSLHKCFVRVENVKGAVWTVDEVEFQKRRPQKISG
The experiment in a line: PD-seq (MBP pull-down with sequencing); 20 mM Tris-HCl pH 7.5, 100 mM NaCl, 1.5 mM MgCl2, 0.4 uM protein, 0.1 uM dsDNA library, 30 min, room temperature, amylose pull-down; high values mean tight binding. The conditions noted are these: protein: recombinant; tags: His6-MBP; chain copies: 2; dsDNA, one strand shown. Put shortly: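 His6-MBP-tagged mouse FoxP3 or FoxP1 fragment lacking the N-terminus, expressed in E. coli, was mixed at 0.4 µM with 0.1 µM Klenow-filled double-stranded degenerate DNA library. Incubation was 30 min at room temperature in Tris pH 7.5 buffer with NaCl and MgCl2. Complexes were caught on amylose resin and washed three times; DNA was released with proteinase K, PCR-barcoded and Illumina-sequenced. Binding is reads-per-million enrichment, pull-down over input, with replicates pooled.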
Regarding “GATGATTGTTCTCCCAGCTGATGAATTTGTCCCCTCGAGTAAACAAATTTTCCTAATCTTTCTGTTCAAGCGCCATCTAC”, the binding signal was 0.96 RPM ratio (pull-down/input).
As to “GATGATTGTTCTCCCAGCTGATGAATTATGAACATCGAGTAAACAAATTTTCCTAATCTTTCTGTTCAAGCGCCATCTAC”, the binding signal was 1.17 RPM ratio (pull-down/input).
With “GATGATTGTTCTCCCAGCTGATGAATTACCTGGATCGAGTAAACAAATTTTCCTAATCTTTCTGTTCAAGCGCCATCTAC”, the binding signal was 0.904 RPM ratio (pull-down/input).
In the case of “GATGATTGTTCTCCCAGCTGATGAATTTCGTGATTCGAGTAAACAAATTTTCCTAATCTTTCTGTTCAAGCGCCATCTAC” it was 0.952 RPM ratio (pull-down/input).
For “GATGATTGTTCTCCCAGCTGATGAATTCGCAGAATCGAGTAAACAAATTTTCCTAATCTTTCTGTTCAAGCGCCATCTAC” the value was 0.95 RPM ratio (pull-down/input).
Consider “GATGATTGTTCTCCCAGCTGATGAATTGACTAAGTCGAGTAAACAAATTTTCCTAATCTTTCTGTTCAAGCGCCATCTAC”, for which the binding signal was 1.03 RPM ratio (pull-down/input).
For “GATGATTGTTCTCCCAGCTGATGAATTTTTGTTGTCGAGTAAACAAATTTTCCTAATCTTTCTGTTCAAGCGCCATCTAC” the value was 2.85 RPM ratio (pull-down/input); for “GATGATTGTTCTCCCAGCTGATGAATTCTCACACTCGAGTAAACAAATTTTCCTAATCTTTCTGTTCAAGCGCCATCTAC”, 0.906 RPM ratio (pull-down/input); for “GATGATTGTTCTCCCAGCTGATGAATTCGGCCGGTCGAGTAAACAAATTTTCCTAATCTTTCTGTTCAAGCGCCATCTAC”, 0.766 RPM ratio (pull-down/input).
“GATGATTGTTCTCCCAGCTGATGAATTTTTAAGTTCGAGTAAACAAATTTTCCTAATCTTTCTGTTCAAGCGCCATCTAC”: the binding signal was 0.97 RPM ratio (pull-down/input).
In the case of “GATGATTGTTCTCCCAGCTGATGAATTATTACCGTCGAGTAAACAAATTTTCCTAATCTTTCTGTTCAAGCGCCATCTAC” it was 1.13 RPM ratio (pull-down/input).
In the case of “GATGATTGTTCTCCCAGCTGATGAATTCCCAGCGTCGAGTAAACAAATTTTCCTAATCTTTCTGTTCAAGCGCCATCTAC” it was 0.949 RPM ratio (pull-down/input); in that of “GATGATTGTTCTCCCAGCTGATGAATTTCCAACCTCGAGTAAACAAATTTTCCTAATCTTTCTGTTCAAGCGCCATCTAC”, 0.748 RPM ratio (pull-down/input); in that of “GATGATTGTTCTCCCAGCTGATGAATTCGCAGCGTCGAGTAAACAAATTTTCCTAATCTTTCTGTTCAAGCGCCATCTAC”, 0.904 RPM ratio (pull-down/input).
Turning to “GATGATTGTTCTCCCAGCTGATGAATTTCCGAGATCGAGTAAACAAATTTTCCTAATCTTTCTGTTCAAGCGCCATCTAC”, the binding signal is 0.797 RPM ratio (pull-down/input).
In the case of “GATGATTGTTCTCCCAGCTGATGAATTTTTACTTTCGAGTAAACAAATTTTCCTAATCTTTCTGTTCAAGCGCCATCTAC” it was 1.05 RPM ratio (pull-down/input).
For “GATGATTGTTCTCCCAGCTGATGAATTCACGAATTCGAGTAAACAAATTTTCCTAATCTTTCTGTTCAAGCGCCATCTAC” the value was 0.946 RPM ratio (pull-down/input); for “GATGATTGTTCTCCCAGCTGATGAATTTTTAAACTCGAGTAAACAAATTTTCCTAATCTTTCTGTTCAAGCGCCATCTAC”, 0.924 RPM ratio (pull-down/input); for “GATGATTGTTCTCCCAGCTGATGAATTGAATGTATCGAGTAAACAAATTTTCCTAATCTTTCTGTTCAAGCGCCATCTAC”, 1.15 RPM ratio (pull-down/input).
For “GATGATTGTTCTCCCAGCTGATGAATTGGTGAGGTCGAGTAAACAAATTTTCCTAATCTTTCTGTTCAAGCGCCATCTAC” the value was 0.846 RPM ratio (pull-down/input); for “GATGATTGTTCTCCCAGCTGATGAATTTATCGGGTCGAGTAAACAAATTTTCCTAATCTTTCTGTTCAAGCGCCATCTAC”, 0.925 RPM ratio (pull-down/input).
Regarding “GATGATTGTTCTCCCAGCTGATGAATTTCAGAGGTCGAGTAAACAAATTTTCCTAATCTTTCTGTTCAAGCGCCATCTAC”, the binding signal was 0.806 RPM ratio (pull-down/input).
Take “GATGATTGTTCTCCCAGCTGATGAATTGATAATCTCGAGTAAACAAATTTTCCTAATCTTTCTGTTCAAGCGCCATCTAC”: the binding signal was 1.04 RPM ratio (pull-down/input).
For “GATGATTGTTCTCCCAGCTGATGAATTAGAACCATCGAGTAAACAAATTTTCCTAATCTTTCTGTTCAAGCGCCATCTAC”, the binding signal was 0.938 RPM ratio (pull-down/input).
In the case of “GATGATTGTTCTCCCAGCTGATGAATTAACAGCTTCGAGTAAACAAATTTTCCTAATCTTTCTGTTCAAGCGCCATCTAC” it was 0.909 RPM ratio (pull-down/input).
For “GATGATTGTTCTCCCAGCTGATGAATTTTTCTAATCGAGTAAACAAATTTTCCTAATCTTTCTGTTCAAGCGCCATCTAC” the value was 1.13 RPM ratio (pull-down/input).
“GATGATTGTTCTCCCAGCTGATGAATTGCACCTGTCGAGTAAACAAATTTTCCTAATCTTTCTGTTCAAGCGCCATCTAC”: the binding signal is 1.12 RPM ratio (pull-down/input).
In the case of “GATGATTGTTCTCCCAGCTGATGAATTTCAATGTTCGAGTAAACAAATTTTCCTAATCTTTCTGTTCAAGCGCCATCTAC” it was 0.933 RPM ratio (pull-down/input).
In the case of “GATGATTGTTCTCCCAGCTGATGAATTGTTGAAATCGAGTAAACAAATTTTCCTAATCTTTCTGTTCAAGCGCCATCTAC” it was 1.21 RPM ratio (pull-down/input); in that of “GATGATTGTTCTCCCAGCTGATGAATTGAGCCAGTCGAGTAAACAAATTTTCCTAATCTTTCTGTTCAAGCGCCATCTAC”, 0.784 RPM ratio (pull-down/input); in that of “GATGATTGTTCTCCCAGCTGATGAATTTTTTCCCTCGAGTAAACAAATTTTCCTAATCTTTCTGTTCAAGCGCCATCTAC”, 0.85 RPM ratio (pull-down/input).
In the case of “GATGATTGTTCTCCCAGCTGATGAATTAGGGGTGTCGAGTAAACAAATTTTCCTAATCTTTCTGTTCAAGCGCCATCTAC” it was 0.896 RPM ratio (pull-down/input).
